# PubChem BioAssay (Tox21)
# Where “and” joins values, the source holds several entries; their conditions need not be identical. Equal values may be shown once. This list was built around the results that the source calls inconclusive (neither active nor inactive); the mix of calls is not that of the screen. For some of these results: Potencies of inconclusive entries are doubtful fits and often do not repeat. More than one record can exist for a structure, and the calls need not agree. Calls of active or inactive are those of the source. Unless noted, the call rests on the fitted dose curve; in most records, active means well fitted curve in the direction sought with a large enough effect in the repeat runs; inconclusive means weak or mixed curves; inactive means no such curve, though single readings can be large; an effect the other way counts as inactive or inconclusive.
# Legend:
# [1] = qHTS assay to identify small molecule antagonists of the estrogen receptor alpha (ER-alpha) signaling pathway using the BG1 cell line in the presence of 0.1 nM 17-beta-estradiol - cell viability counter screen (AID 1259241); conditions: VM7Luc4E2 (BG1) viability, CellTiter-Fluor protease, 22 h, 0.1 nM estradiol agonist added; series mostly up to 92.4 µM; further: on the % scale 0 is the no-effect control and ±100 the full control effect; nearly all actives have a fitted effect of over 40% in size
# Method in brief: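 VM7Luc4E2 cells (endogenous ER-alpha, 4×ERE-luciferase), hormone-starved 5 days in charcoal-stripped FBS, were treated with compounds plus 0.1 nM 17beta-estradiol for 22 hr at 37C; viability read in same wells as CellTiter-Fluor live-cell protease fluorescence.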
# [2] = target: Estrogen receptor (Homo sapiens) (UniProt P03372); test: qHTS assay to identify small molecule agonists of the estrogen receptor alpha (ER-alpha) signaling pathway in the presence of an antagonist (AID 1259383; calls by dose curve; further: potency means the concentration at half of the fitted maximal effect; nearly all actives have a fitted effect of over 15% in size); conditions: VM7Luc4E2 cells, ERE-luciferase, +ICI-182,780, 22 h; series mostly up to 42.5 µM
# Method in brief: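 VM7Luc4E2 cells express endogenous full-length ER-alpha with an ERE-luciferase reporter and were hormone-deprived for 5 days. Compounds at 15 concentrations were added with 10.0nM ICI-182,780 for 22hr at 37C. Luminescence was read with ONE-Glo.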
# [3] = qHTS assay to identify small molecule antagonists of the androgen receptor (AR) signaling pathway using the MDA cell line in the presence of 0.5 nM R1881 - cell viability counter screen (AID 1259242); conditions: MDA-kb2 viability, CellTiter-Fluor protease fluorescence, 16 h; series mostly up to 92.4 µM; further: potency means the concentration at half of the fitted maximal effect; nearly all actives have a fitted effect of over 45% in size
# Method in brief: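 MDA-kb2 cells (MMTV-luciferase, AR/GR responsive) were treated with compounds plus 0.5 nM R1881 (final) for 16 hr at 37C, 0% CO2. Viability was then read in the same wells as live-cell protease fluorescence (CellTiter-Fluor, 30 min).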
# [4] = qHTS assay to identify small molecule agonists of the sonic hedgehog signaling (Shh) pathway - cell viability counter screen (AID 1259366); conditions: NIH/3T3 Gli1-Luc viability, CellTiter-Fluor, 24 h; series mostly up to 92.4 µM; further: potency means the concentration at half of the fitted maximal effect; nearly all actives have a fitted effect of over 50% in size
# Method in brief: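 NIH/3T3-derived 3T3 Gli1-Luc cells (stable Gli1-responsive firefly luciferase reporter) were seeded, rested 4 hr at 37 C/5% CO2, then exposed to compounds in DMSO for 24 hr; viability was read by CellTiter-Fluor fluorescence in the same wells.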
# [5] = target: Estrogen receptor beta (Homo sapiens) (UniProt Q92731); test: qHTS assay to identify small molecule antagonists of the estrogen receptor beta (ER-beta) signaling pathway (AID 1259378; active means well fitted inhibition curve with a large enough effect in the signal ratio in the repeat runs, not every such curve was filed as active; inconclusive means weak or mixed curves, or effect the other way; inactive means no such curve, though single readings can be large or run the other way; the % refers to the signal ratio; further: potency means the concentration at half of the fitted maximal effect); conditions: ER-beta-UAS-bla HEK293T, beta-lactamase FRET ratio, 16 h; activity, negative = inhibition: at 92.4 µM (top of the series) unless noted
# Method in brief: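 Antagonist mode: compounds added to beta-lactamase reporter HEK293T ER-beta-UAS cells stimulated with E2 (1nM final), 16 hr at 37C. LiveBLAzer B/G FRET substrate, 2 hours room temperature, fluorescence read-out.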
# [6] = qHTS assay to identify small molecule agonists of the androgen receptor (AR) signaling pathway in the presence of an antagonist - cell viability counter screen (AID 1259379); conditions: MDA-kb2 viability, CellTiter-Fluor, 16 h; series mostly up to 92.4 µM; further: potency means the concentration at half of the fitted maximal effect; nearly all actives have a fitted effect of over 25% in size
# Method in brief: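 MDA-kb2 cells (MMTV-luciferase, AR/GR), 3,000/well, 5 h attachment, then 3.0 µM nilutamide (final) and compounds at 15 concentrations. Viability by CellTiter-Fluor fluorescence after 16 h at 37 °C, 0% CO2, in the reporter wells.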
# [7] = qHTS assay to identify small molecule agonists of the estrogen receptor beta (ER-beta) signaling pathway - cell viability counter screen (AID 1259380); conditions: ER-beta-bla HEK293T viability, CellTiter-Glo luminescence, 16 h; series mostly up to 92.4 µM; further: potency means the concentration at half of the fitted maximal effect; nearly all actives have a fitted effect of over 30% in size
# Method in brief: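 ER-beta-UAS-bla HEK293T cells in medium with 2% charcoal-stripped FBS, pre-incubated 6 hr, then treated 16 hr at 37C. Cytotoxicity read in the same wells by CellTiter-Glo luminescence after 30 min at room temperature.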
# [8] = target: Androgen receptor (Homo sapiens) (UniProt P10275); test: qHTS assay to identify small molecule antagonists of the androgen receptor (AR) signaling pathway using the MDA cell line in the presence of 0.5 nM R1881 (AID 1259243); conditions: MDA-kb2 MMTV-luciferase, R1881 0.5 nM, 16 h; series mostly up to 42.5 µM; further: potency means the concentration at half of the fitted maximal effect; nearly all actives have a fitted effect of over 50% in size
# Method in brief: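 MDA-kb2 cells (MMTV-luciferase, responsive to AR and GR) at 3,000/well, rested 5 h at 37C, 0% CO2, then given compounds plus 0.5 nM R1881 (final) for 16 hr. Luciferase read with ONE-Glo after 30 min at room temperature.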
# [9] = qHTS assay to identify small molecule phospholipidosis (PLD) inducers (AID 1259344; active means well fitted curve in the direction sought with a large enough effect; inconclusive means small, poorly fitted or top-dose-only effect, or another doubt; inactive means no such curve, though single readings can be large; an effect the other way counts as inactive or inconclusive; further: potency means the concentration at half of the fitted maximal effect); conditions: HepG2 phospholipidosis, LipidTOX Red imaging, 24 h; series mostly up to 38.3 µM
# Method in brief: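 Phospholipidosis is scored by imaging LipidTOX-stained pits in HepG2 cells exposed to compound for 24 h at 37 C; pit counts and integrated intensities per well and per cell serve as outputs.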
# [10] = qHTS assay to identify small molecule antagonists of the sonic hedgehog signaling (Shh) pathway - cell viability counter screen (AID 1259367); conditions: NIH/3T3 Gli1-Luc viability, CellTiter-Fluor, 24 h; series mostly up to 92.4 µM; further: potency means the concentration at half of the fitted maximal effect; nearly all actives have a fitted effect of over 55% in size
# Method in brief: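 Cells: 3T3 Gli1-Luc, 2,000/well, 4 hr pre-incubation. Compounds in DMSO, then conditioned medium. Incubation 24 hr, 37C, 5% CO2. CellTiter-Fluor at 23 hr, 1 hr, fluorescence.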
# [11] = qHTS assay to identify small molecule antagonists of the estrogen receptor beta (ER-beta) signaling pathway - cell viability counter screen (AID 1259382); conditions: ER-beta-UAS-bla HEK293T viability, CellTiter-Glo luminescence, 16 h; series mostly up to 92.4 µM; further: potency means the concentration at half of the fitted maximal effect; nearly all actives have a fitted effect of over 55% in size
# Method in brief: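 ER-beta-UAS-bla HEK293T cells in 2% charcoal-stripped FBS medium, treated with compound plus 1 nM 17-beta-estradiol for 16 h at 37C. Viability read by CellTiter-Glo luminescence after 30 min at room temperature in the same wells.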
# [12] = qHTS assay to identify small molecule agonists or antagonists of the thyroid stimulating hormone receptor (TSHR) signaling pathway - wild type cell line counter screen (AID 1259384; calls by dose curve; further: potency means the concentration at half of the fitted maximal effect; on cAMP activity change: on the % scale 0 is the no-effect control and ±100 the full control effect); conditions: HEK293 wild type, cAMP HTRF counter-screen; for cAMP activity change: stronger effect = higher value
# Method in brief: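 Counter screen in untransfected Hek293: compounds (15-point titration, triplicate) plus phosphodiesterase inhibitor Ro20-1724 added after 18 h plating; 30 min RT. Intracellular cAMP via competitive d2/cryptate immunoassay, 1 h incubation.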
# Tags describe the fitted curve by direction and shape or compound fluorescence and quenching.
# Chain of UniProt Q92731 (Q92731 whole entry, looked up): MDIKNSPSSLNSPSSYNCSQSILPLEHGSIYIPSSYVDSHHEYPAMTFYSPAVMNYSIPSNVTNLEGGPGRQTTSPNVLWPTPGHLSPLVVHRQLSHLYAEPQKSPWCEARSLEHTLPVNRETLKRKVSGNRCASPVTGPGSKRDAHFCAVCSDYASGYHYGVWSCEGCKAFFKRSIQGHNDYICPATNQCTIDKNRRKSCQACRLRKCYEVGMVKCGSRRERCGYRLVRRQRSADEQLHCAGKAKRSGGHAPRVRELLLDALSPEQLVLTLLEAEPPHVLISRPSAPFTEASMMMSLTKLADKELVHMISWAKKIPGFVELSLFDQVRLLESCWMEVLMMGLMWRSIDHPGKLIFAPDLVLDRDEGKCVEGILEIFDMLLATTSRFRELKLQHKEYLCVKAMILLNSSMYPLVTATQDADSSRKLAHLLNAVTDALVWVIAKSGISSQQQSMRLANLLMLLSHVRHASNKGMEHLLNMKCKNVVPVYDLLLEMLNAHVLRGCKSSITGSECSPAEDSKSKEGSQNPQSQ
# Chain of UniProt P03372 (P03372 whole entry, looked up): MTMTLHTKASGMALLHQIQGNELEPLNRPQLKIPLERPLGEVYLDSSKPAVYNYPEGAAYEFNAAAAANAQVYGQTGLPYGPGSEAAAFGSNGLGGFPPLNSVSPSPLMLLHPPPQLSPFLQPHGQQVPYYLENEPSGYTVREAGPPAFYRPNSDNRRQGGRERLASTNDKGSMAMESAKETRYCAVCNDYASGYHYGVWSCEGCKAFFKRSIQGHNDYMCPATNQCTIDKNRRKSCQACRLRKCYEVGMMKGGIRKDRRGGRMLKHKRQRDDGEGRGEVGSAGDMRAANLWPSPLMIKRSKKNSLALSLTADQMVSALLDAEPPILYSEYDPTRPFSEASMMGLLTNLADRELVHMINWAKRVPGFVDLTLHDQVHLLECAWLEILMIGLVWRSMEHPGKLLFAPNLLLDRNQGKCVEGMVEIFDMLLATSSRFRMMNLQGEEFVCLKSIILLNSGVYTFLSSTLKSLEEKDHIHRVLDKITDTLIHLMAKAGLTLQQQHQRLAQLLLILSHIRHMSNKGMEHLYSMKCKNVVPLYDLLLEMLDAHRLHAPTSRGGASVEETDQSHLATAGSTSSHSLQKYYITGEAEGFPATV
# Chain of UniProt P10275 (P10275 whole entry, looked up): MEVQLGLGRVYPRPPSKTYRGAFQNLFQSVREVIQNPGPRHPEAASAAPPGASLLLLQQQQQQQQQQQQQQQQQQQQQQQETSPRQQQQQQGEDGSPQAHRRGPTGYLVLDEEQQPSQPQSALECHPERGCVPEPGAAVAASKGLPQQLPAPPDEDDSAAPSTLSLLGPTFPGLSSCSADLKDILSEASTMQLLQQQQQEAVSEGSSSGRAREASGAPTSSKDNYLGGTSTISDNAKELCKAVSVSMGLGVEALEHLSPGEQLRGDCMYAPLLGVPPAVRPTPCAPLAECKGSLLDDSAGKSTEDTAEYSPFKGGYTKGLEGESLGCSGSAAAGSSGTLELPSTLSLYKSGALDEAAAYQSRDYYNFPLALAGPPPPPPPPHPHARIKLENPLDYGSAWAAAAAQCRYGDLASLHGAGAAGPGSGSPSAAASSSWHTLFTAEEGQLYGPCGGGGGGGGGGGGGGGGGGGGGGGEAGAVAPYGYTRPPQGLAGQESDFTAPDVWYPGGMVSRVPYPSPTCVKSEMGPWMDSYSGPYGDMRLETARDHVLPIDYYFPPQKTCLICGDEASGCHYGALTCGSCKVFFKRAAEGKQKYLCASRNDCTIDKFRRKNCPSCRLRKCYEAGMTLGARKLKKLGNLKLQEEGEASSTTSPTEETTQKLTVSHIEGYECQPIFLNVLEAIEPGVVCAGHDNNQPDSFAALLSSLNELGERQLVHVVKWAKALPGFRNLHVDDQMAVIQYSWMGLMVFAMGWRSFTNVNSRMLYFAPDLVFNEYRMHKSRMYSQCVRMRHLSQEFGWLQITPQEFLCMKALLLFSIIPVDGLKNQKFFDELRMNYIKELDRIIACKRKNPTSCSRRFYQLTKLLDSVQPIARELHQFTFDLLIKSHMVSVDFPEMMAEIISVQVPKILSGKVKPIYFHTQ
smiles,measurement,setting,value
ONc1ccccc1,Potency,[1],inactive
same,Potency,[2],"inconclusive: 24.1 µM [activator, partial curve, poor fit]"
O=C1OC2(c3ccccc31)c1cc(I)c(O)c(I)c1Oc1c2cc(I)c(O)c1I,Potency,[3],active: 9.71 µM [middle of 4 runs]
same,Potency,[4],active: 15.5 µM [middle of 4 runs]
O[C@@H](c1cc(C(F)(F)F)nc2c(C(F)(F)F)cccc12)[C@H]1CCCCN1,Potency,[3],"inconclusive: 33.5 µM [cytotoxic, single point]"
same,Potency,[4],active: 29.8 µM
same,Potency,[5],inconclusive: 13.3 µM
same,Potency,[6],"inconclusive: 33.5 µM [cytotoxic, single point]"
same,Potency,[7],active: 21.1 µM
NCCNc1cccc2ccccc12,Potency,[3],"inconclusive: 61.1 µM [cytotoxic, partial curve] and inconclusive: 66.9 µM [cytotoxic, partial curve, poor fit]"
same,Potency,[8],"inconclusive: 66.9 µM [inhibitor, single point]"
same,Potency,[9],"inconclusive: 25.1 µM [activator, partial curve, poor fit]"
same,Potency,[4],"active: 61.1 µM and inconclusive: 59.6 µM [cytotoxic, partial curve, poor fit]"
same,Potency,[10],"inconclusive: 48.5 µM [cytotoxic, partial curve, poor fit] and inconclusive: 33.5 µM [cytotoxic, partial curve]"
same,Potency,[7],"inconclusive: 33.5 µM [cytotoxic, single point]"
same,Potency,[11],active: 24.3 µM and active: 59.6 µM
same,cAMP activity change,[12]; at 42.5 µM (top of the series),inconclusive: -15.9%
same,cAMP activity change,[12]; at 92.4 µM (top of the series),inconclusive: -11.7%
same,Potency,"[12]; cAMP activity change: at 92.4 µM (top of the series), stronger effect = higher value unless noted",inconclusive: 42.2 µM
